Measured values: patent publication US20220389082A1 (CSL BEHRING LENGNAU, published 2022)

How the values were obtained:
[1] = target: T1, rVIII-SingleChain (single chain Factor VIII molecule, construct dBN(64-53) of WO 2004/067566) (Homo sapiens (Human), UniProt P00451 20-2351); experiment: SPR (Biacore T200), D′D3-FP captured on anti-albumin antibody, rVIII-SingleChain as analyte, single cycle kinetics, 25° C.; D′D3-FP monomer preparation
T1 construct: also called FVIII
T1 sequence: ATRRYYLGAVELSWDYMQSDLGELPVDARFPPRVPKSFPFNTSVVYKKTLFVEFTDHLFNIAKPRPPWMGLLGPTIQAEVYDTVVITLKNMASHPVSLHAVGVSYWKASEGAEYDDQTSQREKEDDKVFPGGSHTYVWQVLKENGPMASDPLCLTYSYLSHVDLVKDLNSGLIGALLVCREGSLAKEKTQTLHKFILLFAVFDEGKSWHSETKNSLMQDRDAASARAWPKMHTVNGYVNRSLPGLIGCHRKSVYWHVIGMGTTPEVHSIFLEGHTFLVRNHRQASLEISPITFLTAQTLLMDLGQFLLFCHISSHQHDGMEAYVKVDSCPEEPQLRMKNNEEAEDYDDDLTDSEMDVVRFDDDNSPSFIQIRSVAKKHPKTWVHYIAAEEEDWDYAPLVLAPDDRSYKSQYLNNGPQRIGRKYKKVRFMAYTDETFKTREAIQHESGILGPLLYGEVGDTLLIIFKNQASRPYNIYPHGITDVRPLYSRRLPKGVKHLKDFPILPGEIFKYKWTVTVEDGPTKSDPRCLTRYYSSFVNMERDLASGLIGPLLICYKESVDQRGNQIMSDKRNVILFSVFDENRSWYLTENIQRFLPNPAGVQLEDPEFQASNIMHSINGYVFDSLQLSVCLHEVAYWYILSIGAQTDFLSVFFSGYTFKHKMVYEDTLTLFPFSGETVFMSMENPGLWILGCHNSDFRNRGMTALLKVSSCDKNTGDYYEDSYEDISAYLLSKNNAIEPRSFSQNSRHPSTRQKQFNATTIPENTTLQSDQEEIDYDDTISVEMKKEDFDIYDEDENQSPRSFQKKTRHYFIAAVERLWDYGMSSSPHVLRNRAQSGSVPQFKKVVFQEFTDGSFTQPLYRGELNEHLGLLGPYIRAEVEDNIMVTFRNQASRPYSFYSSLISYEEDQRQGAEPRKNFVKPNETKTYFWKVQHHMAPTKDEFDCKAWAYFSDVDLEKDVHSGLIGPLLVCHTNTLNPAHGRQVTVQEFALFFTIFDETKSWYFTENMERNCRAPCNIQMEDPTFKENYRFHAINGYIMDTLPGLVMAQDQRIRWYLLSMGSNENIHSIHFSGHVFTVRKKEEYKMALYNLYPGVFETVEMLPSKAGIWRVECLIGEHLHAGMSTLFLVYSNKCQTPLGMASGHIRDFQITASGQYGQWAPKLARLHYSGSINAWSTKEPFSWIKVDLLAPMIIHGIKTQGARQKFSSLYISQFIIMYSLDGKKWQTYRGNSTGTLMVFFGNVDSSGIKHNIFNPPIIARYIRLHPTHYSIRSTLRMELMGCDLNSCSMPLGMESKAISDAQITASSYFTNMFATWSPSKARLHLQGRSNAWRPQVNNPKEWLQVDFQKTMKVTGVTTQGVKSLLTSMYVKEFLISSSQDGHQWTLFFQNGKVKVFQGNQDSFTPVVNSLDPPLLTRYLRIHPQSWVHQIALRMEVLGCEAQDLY
Experimental: (§1) An anti-albumin antibody (MA1-20124, Thermo Scientific) was covalently coupled via its N-terminus to an activated CM 3 chip by NHS (N-Hydroxysuccinimide) and EDC […], both contained in the amine coupling kit (BR1000-50) from GE Healthcare. For immobilization 3 μg/mL of the antibody were diluted in sodium acetate buffer (10 mM, pH 5.0) and the antibody solution was flown over the chip for 7 min. at a flow rate of 10 μL/min. After the immobilization procedure non-coupled dextran filaments were saturated by flowing ethanolamine solution (1 M, pH 8.3) over the chip for 5 min (at a flow rate of 10 μL/min). The aim of saturating the flow cell was to minimize unspecific binding of the analytes to the chip. A reference flow cell was set up by saturating an empty flow cell with ethanolamine by using the same procedure as above.
(§2) Dimeric and monomeric D′D3-FP proteins, respectively, were immobilized to the covalently coupled anti-albumin antibody by a flow of the D′D3-FP proteins (5 μg/mL) over the chip for 3 min (flow rate of 10 μL/min).
(§3) To create binding curves for FVIII, each D′D3-FP protein preparation was diluted in running buffer (HBS-P+: 0.1 M HEPES, 1.5 M NaCl and 0.5% v/v Surfactant P20, pH 7.4; product code BR100671, GE Healthcare) to concentrations of 0.25 nM, 0.5 nM, 1 nM, 3 nM and 4 nM. […]

[2] = target: T1, rVIII-SingleChain (single chain Factor …); experiment: SPR (Biacore T200), D′D3-FP captured on anti-albumin antibody, rVIII-SingleChain as analyte, single cycle kinetics, 25° C.
Experimental: as §1, §2, §3

B1: D′D3 albumin fusion protein (D′D3-FP), monomer (other)
chain: SLSCRPPMVKLVCPADNLRAEGLECTKTCQNYDLECMSMGCVSGCLCPPGMVRHENRCVALERCPCFHQGKEYAPGETVKIGCNTCVCRDRKWNCTDHVCDATCSTIGMAHYLTFDGLKYLFPGECQYVLVQDYCGSNPGTFRILVGNKGCSHPSVKCKKRVTILVEGGEIELFDGEVNVKRPMKDETHFEVVESGRYIILLLGKALSVVWDRHLSISVVLKQTYQEKVCGLCGNFDGIQNNDLTSSNLQVEEDPVDFGNSWKVSSQCADTRKVPLDSSPATCHNNIMKQTMVDSSCRILTSDVFQDCNKLVDPEPYLDVCIYDTCSCESIGDCACFCDTIAAYAHVCAQHGKVVTWRTATLCPQSCEERNLRENGYECEWRYNSCAPACQVTCQHPEPLACPVQCVEGCHAHCPPGKILDELLQTCVDPEDCPVCEVAGRRFASGKKVTLNPSDPEHCQICHCDVVNLTCEACQEPGGSSGGSGGSGGSGGSGGSGGSGGSGGSGGSGS[here about 600 residues without letters]
modifications: N-glycosylated, sialylated glycoprotein from CHO cells. This is the monomer fraction from size exclusion chromatography.
notes: This is the monomer fraction isolated by size exclusion chromatography; In the SPR assay it was captured on an anti-albumin antibody; also called monomeric D′D3-FP
Kd [1]: 30 nM | koff [2]: 0.03 s⁻¹ | kon [2]: 990000 M⁻¹ s⁻¹
